# Experimental data reported in paper PMC6919601, “Identification of Plasmodium dipeptidyl aminopeptidase allosteric inhibitors by high throughput screening” (PLoS ONE, 2019).
# The whole screen tested about 110,000 compounds, of which about 230 (0.21%) showed an effect of 50% or more. Some of the results follow.
# Target: DPAP1 (Plasmodium falciparum, UniProt Q8IIJ9)
# Test: primary screen, percent inhibition; read by cleavage of a fluorogenic dipeptide substrate; higher = more effect of the substance
# Design: species or system P. falciparum D10 trophozoite lysates; single well
# 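Also: 30 min substrate incubation versus DMSO and 10 µM JCP410 controls.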
# Chain of DPAP1 (Q8IIJ9 whole entry, looked up): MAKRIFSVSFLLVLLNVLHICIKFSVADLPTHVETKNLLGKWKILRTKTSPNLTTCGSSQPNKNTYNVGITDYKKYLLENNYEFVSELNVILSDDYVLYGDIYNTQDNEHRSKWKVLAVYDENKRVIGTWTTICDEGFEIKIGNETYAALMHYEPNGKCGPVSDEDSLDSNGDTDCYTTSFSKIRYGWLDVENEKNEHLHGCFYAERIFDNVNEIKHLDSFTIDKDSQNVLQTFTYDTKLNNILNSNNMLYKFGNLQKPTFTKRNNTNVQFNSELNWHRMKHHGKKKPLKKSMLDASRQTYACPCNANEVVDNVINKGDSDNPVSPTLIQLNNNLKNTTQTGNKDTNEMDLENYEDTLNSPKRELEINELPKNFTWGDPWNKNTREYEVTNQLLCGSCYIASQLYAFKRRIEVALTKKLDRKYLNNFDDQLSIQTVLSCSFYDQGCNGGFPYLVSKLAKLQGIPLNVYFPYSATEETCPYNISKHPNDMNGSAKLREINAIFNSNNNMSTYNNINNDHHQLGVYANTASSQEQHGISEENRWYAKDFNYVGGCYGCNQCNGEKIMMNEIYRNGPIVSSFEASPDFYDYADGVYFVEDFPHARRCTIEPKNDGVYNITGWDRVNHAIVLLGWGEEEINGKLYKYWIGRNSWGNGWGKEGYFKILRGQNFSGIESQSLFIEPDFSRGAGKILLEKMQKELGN
row,SMILES,% Inhibition @ 10 uM
1,CCCOc1ccc(C2SCC(=O)Nc3c2c(O)nn3C(C)C)cc1 (stereo not shown),1.25%
2,Clc1nc(NCCN2CCOCC2)nc(N2CCCCC2)n1,2.41%
3,COc1cccc(/C=C(\C#N)c2nc(-c3ccc(C)cc3)cs2)c1,-3.04%
4,CC(C)CNC(=O)C1CC(=O)N(c2ccccc2)C1 (stereo not shown),-0.622%
5,COc1cccc2c1cc1c(=O)n(CC(=O)N3CCN(C(=O)c4ccco4)CC3)nc(C)n12,1.68%
6,CCOc1cc(C(=O)Nc2nnc(COC)s2)cc(OCC)c1OCC,-3.33%
7,O=C(Nc1cccc(C(F)(F)F)c1)c1ccc(Cl)c([N+](=O)[O-])c1,-0.197%
8,CC12CCCc3c(-c4nc[nH]n4)c(-c4ccccc4)c(=O)n(c31)-c1ccccc12 (stereo not shown),4.41%
9,COCCCNC(=O)/C(C#N)=C/c1c(Oc2ccccc2C)nc2c(C)cccn2c1=O,-5.1%
10,CCCOc1ccc(/C=C2\N=C(c3ccc(Cl)cc3)OC2=O)cc1OC,3.04%
11,CCOC=C1C(=O)c2ccccc2C1=O,-0.289%
12,O=C(NCc1ccco1)c1c(O)nc2ccccc2c1O,4.45%
13,O=C(NC(Cc1c[nH]c2ccccc12)C(=O)O)c1ccco1 (stereo not shown),3.16%
14,Cc1cccc(-c2noc(CNC(=O)COc3cccc(C)c3C)n2)c1,-2.99%
15,CC(C)c1ccc(CNCCCSc2nnnn2C)cc1,-8.57%
16,CCOCCCNC(=O)C(c1ccc(C)cc1)N(Cc1ccc2c(c1)OCO2)C(=O)c1cnccn1 (stereo not shown),2.74%
17,CCC(C)NC(=O)C1CCN(c2nnc(C)c3c(C)n(-c4ccc(Cl)cc4)nc23)CC1 (stereo not shown),-2.14%
18,CC(=O)Nc1ccc(NC(=O)c2cc(C)n(C)n2)cc1,-2.66%
19,CC1CN(C2=NC(=O)/C(=C\c3ccccc3)S2)CC(C)O1 (stereo not shown),-7.98%
20,Cc1nn(CCC(=O)NCCC(C)C)c(=O)c2nn(-c3ccccc3)c(C)c12,-4.96%
21,COc1ccc2c(CNCc3ccc4c(c3)OCO4)c(C(=O)O)n(Cc3ccccc3C)c2c1,3.61%
22,CC(C)C(=O)Nc1ccc(C(=O)NC(c2ccccc2)c2ccccc2)cc1,-2.19%
23,COc1cc(C2=NOC(C(=O)Nc3cc(C)on3)C2)cc(OC)c1OC (stereo not shown),-0.431%
24,Cc1ccc(NC(=O)c2cccnc2C(=O)O)nc1,3.96%
25,O=C(c1cccc(F)c1)N1CCCC(C(=O)N2CCCCCC2)C1 (stereo not shown),-1.17%
26,CCOCc1ccc(O)c2ncccc12,1.19%
27,CCN(CC)c1nc(Cl)nc(N(CC)CC)n1,-0.216%
28,Cc1cc(NS(=O)(=O)c2ccc(NC(=O)c3ccc(-c4ccccc4)cc3)cc2)no1,4.11%
